The supplement of paper PMC8728848
Some of the results follow.

Legend:
Experiment in all cases: glycan array binding signal (z-score within array); higher = stronger binding
Settings in all cases: glycan notation: IUPAC condensed, linker removed
[1] = biological target: GlcNAc(a1-3)Gal(b1-4)GlcNAc
Method in brief: (§1)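 Negative Z-scores can be read as non-binding. The Z-score is calculated within each array and then averaged across arrays of one protein sequence at different concentrations or buffers and across linkers. Arrays, 3228 in all, were curated from the Consortium for Functional Glycomics database and kept only where the protein sequence was available.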

[2] = biological target: GlcNAc(a1-4)Gal(b1-3)GlcNAc
Method in brief: as §1

[3] = biological target: GlcNAc(a1-4)Gal(b1-4)GalNAc
Method in brief: as §1

[4] = biological target: GlcNAc(a1-4)Gal(b1-4)GlcNAc
Method in brief: as §1

[5] = biological target: GlcNAc(a1-4)Gal(b1-4)GlcNAc(b1-3)Gal(b1-4)Glc
Method in brief: as §1

[6] = biological target: GlcNAc(a1-4)Gal(b1-4)GlcNAc(b1-3)Gal(b1-4)GlcNAc
Method in brief: as §1

[7] = biological target: GlcNAc(a1-4)Gal(b1-4)GlcNAc(b1-3)Gal(b1-4)GlcNAc(b1-3)Gal(b1-4)GlcNAc
Method in brief: as §1

[8] = biological target: GlcNAc(a1-4)Gal(b1-4)GlcNAc(b1-3)Gal(b1-4)[Fuc(a1-3)]GlcNAc(b1-3)Gal(b1-4)[Fuc(a1-3)]GlcNAc
Method in brief: as §1

[9] = biological target: GlcNAc(a1-6)Gal(b1-4)GlcNAc
Method in brief: as §1

[10] = biological target: GlcNAc(b1-2)Gal(b1-3)GalNAc
Method in brief: as §1

[11] = biological target: GlcNAc(b1-2)Man(a1-3)[GlcNAc(b1-2)Man(a1-6)]Man(b1-4)GlcNAc(b1-4)GlcNAc
Method in brief: as §1

[12] = biological target: GlcNAc(b1-2)Man(a1-3)[GlcNAc(b1-2)Man(a1-6)]Man(b1-4)GlcNAc(b1-4)[Fuc(a1-6)]GlcNAc
Method in brief: as §1

[13] = biological target: GlcNAc(b1-2)Man(a1-3)[GlcNAc(b1-4)][GlcNAc(b1-2)Man(a1-6)]Man(b1-4)GlcNAc(b1-4)GlcNAc
Method in brief: as §1

[14] = biological target: GlcNAc(b1-2)Man(a1-3)[GlcNAc(b1-4)][GlcNAc(b1-2)Man(a1-6)]Man(b1-4)GlcNAc(b1-4)[Fuc(a1-6)]GlcNAc
Method in brief: as §1

[15] = biological target: GlcNAc(b1-2)[GlcNAc(b1-4)]Man(a1-3)[GlcNAc(b1-2)Man(a1-6)]Man(b1-4)GlcNAc(b1-4)GlcNAc
Method in brief: as §1

[16] = biological target: GlcNAc(b1-2)[GlcNAc(b1-4)]Man(a1-3)[GlcNAc(b1-4)][GlcNAc(b1-2)Man(a1-6)]Man(b1-4)GlcNAc(b1-4)GlcNAc
Method in brief: as §1

[17] = biological target: GlcNAc(b1-2)[GlcNAc(b1-4)]Man(a1-3)[GlcNAc(b1-4)][GlcNAc(b1-2)[GlcNAc(b1-6)]Man(a1-6)]Man(b1-4)GlcNAc(b1-4)GlcNAc
Method in brief: as §1

[18] = biological target: GlcNAc(b1-2)[GlcNAc(b1-4)]Man(a1-3)[GlcNAc(b1-4)][GlcNAc(b1-2)[GlcNAc(b1-6)]Man(a1-6)]Man(b1-4)GlcNAc(b1-4)[Fuc(a1-6)]GlcNAc
Method in brief: as §1

[19] = biological target: GlcNAc(b1-2)[GlcNAc(b1-6)]Man(a1-6)[GlcNAc(b1-2)Man(a1-3)]Man(b1-4)GlcNAc(b1-4)GlcNAc
Method in brief: as §1

[20] = biological target: GlcNAc(b1-2)[GlcNAc(b1-6)]Man(a1-6)[GlcNAc(b1-2)Man(a1-3)]Man(b1-4)GlcNAc(b1-4)[Fuc(a1-6)]GlcNAc
Method in brief: as §1

[21] = biological target: GlcNAc(b1-2)[GlcNAc(b1-6)]Man(a1-6)[GlcNAc(b1-4)][GlcNAc(b1-2)Man(a1-3)]Man(b1-4)GlcNAc(b1-4)GlcNAc
Method in brief: as §1

[22] = biological target: GlcNAc(b1-3)Fuc
Method in brief: as §1

[23] = biological target: GlcNAc(b1-3)Gal
Method in brief: as §1

[24] = biological target: GlcNAc(b1-3)Gal(b1-3)GalNAc
Method in brief: as §1

[25] = biological target: GlcNAc(b1-3)Gal(b1-4)Glc
Method in brief: as §1

[26] = biological target: GlcNAc(b1-3)Gal(b1-4)GlcNAc
Method in brief: as §1

[27] = biological target: GlcNAc(b1-3)Gal(b1-4)GlcNAc(b1-2)Man(a1-3)[GlcNAc(b1-3)Gal(b1-4)GlcNAc(b1-2)Man(a1-6)]Man(b1-4)GlcNAc(b1-4)GlcNAc
Method in brief: as §1

[28] = biological target: GlcNAc(b1-3)Gal(b1-4)GlcNAc(b1-2)Man(a1-3)[GlcNAc(b1-3)Gal(b1-4)GlcNAc(b1-2)Man(a1-6)]Man(b1-4)GlcNAc(b1-4)[Fuc(a1-6)]GlcNAc
Method in brief: as §1

[29] = biological target: GlcNAc(b1-3)Gal(b1-4)GlcNAc(b1-2)[GlcNAc(b1-3)Gal(b1-4)GlcNAc(b1-6)]Man(a1-6)[GlcNAc(b1-3)Gal(b1-4)GlcNAc(b1-2)Man(a1-3)]Man(b1-4)GlcNAc(b1-4)GlcNAc
Method in brief: as §1

[30] = biological target: GlcNAc(b1-3)Gal(b1-4)GlcNAc(b1-3)Gal(b1-4)GlcNAc
Method in brief: as §1

[31] = biological target: GlcNAc(b1-3)Gal(b1-4)GlcNAc(b1-3)Gal(b1-4)GlcNAc(b1-2)Man(a1-3)[GlcNAc(b1-3)Gal(b1-4)GlcNAc(b1-3)Gal(b1-4)GlcNAc(b1-2)Man(a1-6)]Man(b1-4)GlcNAc(b1-4)GlcNAc
Method in brief: as §1

[32] = biological target: GlcNAc(b1-3)Gal(b1-4)GlcNAc(b1-3)Gal(b1-4)GlcNAc(b1-2)Man(a1-3)[GlcNAc(b1-3)Gal(b1-4)GlcNAc(b1-3)Gal(b1-4)GlcNAc(b1-2)Man(a1-6)]Man(b1-4)GlcNAc(b1-4)[Fuc(a1-6)]GlcNAc
Method in brief: as §1

[33] = biological target: GlcNAc(b1-3)Gal(b1-4)GlcNAc(b1-3)Gal(b1-4)GlcNAc(b1-2)[GlcNAc(b1-3)Gal(b1-4)GlcNAc(b1-3)Gal(b1-4)GlcNAc(b1-6)]Man(a1-6)[GlcNAc(b1-3)Gal(b1-4)GlcNAc(b1-3)Gal(b1-4)GlcNAc(b1-2)Man(a1-3)]Man(b1-4)GlcNAc(b1-4)[Fuc(a1-6)]GlcNAc
Method in brief: as §1

[34] = biological target: GlcNAc(b1-3)Gal(b1-4)GlcNAc(b1-3)Gal(b1-4)GlcNAc(b1-3)Gal(b1-4)GlcNAc(b1-2)Man(a1-3)[GlcNAc(b1-3)Gal(b1-4)GlcNAc(b1-3)Gal(b1-4)GlcNAc(b1-3)Gal(b1-4)GlcNAc(b1-2)Man(a1-6)]Man(b1-4)GlcNAc(b1-4)GlcNAc
Method in brief: as §1

[35] = biological target: GlcNAc(b1-3)Gal(b1-4)GlcNAc(b1-3)Gal(b1-4)GlcNAc(b1-3)Gal(b1-4)GlcNAc(b1-2)Man(a1-3)[GlcNAc(b1-3)Gal(b1-4)GlcNAc(b1-3)Gal(b1-4)GlcNAc(b1-3)Gal(b1-4)GlcNAc(b1-2)Man(a1-6)]Man(b1-4)GlcNAc(b1-4)[Fuc(a1-6)]GlcNAc
Method in brief: as §1

[36] = biological target: GlcNAc(b1-3)Gal(b1-4)GlcNAc(b1-3)Gal(b1-4)GlcNAc(b1-3)Gal(b1-4)GlcNAc(b1-2)[GlcNAc(b1-3)Gal(b1-4)GlcNAc(b1-3)Gal(b1-4)GlcNAc(b1-3)Gal(b1-4)GlcNAc(b1-6)]Man(a1-6)[GlcNAc(b1-3)Gal(b1-4)GlcNAc(b1-3)Gal(b1-4)GlcNAc(b1-3)Gal(b1-4)GlcNAc(b1-2)Man(a1-3)]Man(b1-4)GlcNAc(b1-4)[Fuc(a1-6)]GlcNAc
Method in brief: as §1

[37] = biological target: GlcNAc(b1-3)Gal(b1-4)GlcNAc(b1-3)Gal(b1-4)GlcNAc(b1-3)Gal(b1-4)GlcNAc(b1-3)Gal(b1-4)GlcNAc(b1-2)Man(a1-3)[GlcNAc(b1-3)Gal(b1-4)GlcNAc(b1-3)Gal(b1-4)GlcNAc(b1-3)Gal(b1-4)GlcNAc(b1-3)Gal(b1-4)GlcNAc(b1-2)Man(a1-6)]Man(b1-4)GlcNAc(b1-4)GlcNAc
Method in brief: as §1

[38] = biological target: GlcNAc(b1-3)Gal(b1-4)GlcNAc(b1-3)Gal(b1-4)GlcNAc(b1-3)Gal(b1-4)GlcNAc(b1-3)Gal(b1-4)GlcNAc(b1-2)Man(a1-3)[GlcNAc(b1-3)Gal(b1-4)GlcNAc(b1-3)Gal(b1-4)GlcNAc(b1-3)Gal(b1-4)GlcNAc(b1-3)Gal(b1-4)GlcNAc(b1-2)Man(a1-6)]Man(b1-4)GlcNAc(b1-4)[Fuc(a1-6)]GlcNAc
Method in brief: as §1

B1: Epa1to9 (Candida glabrata) (protein)
chain: MGSSHHHHHHSSGLVPRGSHMTSSNDISLASKDPTTFPLGCSPDITTPKKGLSMELYSYDFRKKGSYPCWDAAYLDPNYPRTGYKSHRLLAKVDGVTGNINFYYHATKGCTPQLGHLPASYNYPKPLTMTNFTMLLYGYFRPKVTGFHTFTISADDLLFVNFGAGNAFDCCRRDSSADHFGNYQAYAIWGSKTAKDELTVHLDAGVYYPIRLFYNNRDYHGALSFTFKTESNENTVSDFSEYFFSLDDTEEGCPGLISYD
In the case of B1, the “glycan array binding signal (z-score)” value [1] is reported as -0.355, the “glycan array binding signal (z-score)” value [2] is reported as -0.4 and the “glycan array binding signal (z-score)” value [3] is reported as -0.387. The “glycan array binding signal (z-score)” value [4] was -0.312, the “glycan array binding signal (z-score)” value [5] was -0.501 and the “glycan array binding signal (z-score)” value [6] was -0.361. The “glycan array binding signal (z-score)” value [7] was -0.347, the “glycan array binding signal (z-score)” value [8] was -0.308 and the “glycan array binding signal (z-score)” value [9] was 1.09. The “glycan array binding signal (z-score)” value [10] was -0.313, the “glycan array binding signal (z-score)” value [11] was -0.366 and the “glycan array binding signal (z-score)” value [12] was -0.348. The “glycan array binding signal (z-score)” value [13] was -0.347, the “glycan array binding signal (z-score)” value [14] was -0.354 and the “glycan array binding signal (z-score)” value [15] was -0.295. For the same binder, the “glycan array binding signal (z-score)” value [16] was -0.347, the “glycan array binding signal (z-score)” value [17] was -0.358 and the “glycan array binding signal (z-score)” value [18] was -0.351. The “glycan array binding signal (z-score)” value [19] was -0.344, the “glycan array binding signal (z-score)” value [20] was -0.342 and the “glycan array binding signal (z-score)” value [21] was -0.352. The “glycan array binding signal (z-score)” value [22] was -0.343, the “glycan array binding signal (z-score)” value [23] was -0.358 and the “glycan array binding signal (z-score)” value [24] was -0.301. For the same binder, the “glycan array binding signal (z-score)” value [25] was -0.338, the “glycan array binding signal (z-score)” value [26] was -0.351 and the “glycan array binding signal (z-score)” value [27] was -0.345. The “glycan array binding signal (z-score)” value [28] was -0.324, the “glycan array binding signal (z-score)” value [29] was -0.302 and the “glycan array binding signal (z-score)” value [30] was -0.315. The “glycan array binding signal (z-score)” value [31] was -0.338, the “glycan array binding signal (z-score)” value [32] was -0.333 and the “glycan array binding signal (z-score)” value [33] was -0.328. For the same binder, the “glycan array binding signal (z-score)” value [34] was -0.341, the “glycan array binding signal (z-score)” value [35] was -0.33 and the “glycan array binding signal (z-score)” value [36] was -0.33. The “glycan array binding signal (z-score)” value [37] was -0.342 and the “glycan array binding signal (z-score)” value [38] was -0.288.
